{"source": "patent US9873709B2", "about": "(priority 2013, dated 2018)"}
{"biological_target": "isolated recombinant JAK1 kinase domain (Homo sapiens (Human), UniProt P23458)", "sequence (P23458 875-1153)": "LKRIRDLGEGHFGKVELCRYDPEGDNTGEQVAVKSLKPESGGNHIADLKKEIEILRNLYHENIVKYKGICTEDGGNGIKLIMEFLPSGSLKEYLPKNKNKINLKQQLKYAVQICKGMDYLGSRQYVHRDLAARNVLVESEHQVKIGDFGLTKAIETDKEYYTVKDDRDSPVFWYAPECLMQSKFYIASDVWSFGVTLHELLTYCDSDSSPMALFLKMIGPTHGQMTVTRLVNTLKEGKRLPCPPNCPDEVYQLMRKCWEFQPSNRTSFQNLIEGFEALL", "details": "read-out: JAK1 Ki; isolated recombinant JAK1 kinase domain, 25 μM ATP", "units": {"Ki": "nM"}}
{"compound": "CN1CCN(C(=O)C2CN(C(=O)c3ccc(Nc4nc5c(C6=CCN(C(=O)CCC(F)(F)F)CC6)cccn5n4)cc3)C2)CC1", "note": "[Example 2-159, 4,4,4-trifluoro-1-[4-[2-[4-[3-(4-methylpiperazine-1-carbonyl)azetidine-1-carbonyl]anilino]-[1,2,4]triazolo[1,5-a]pyridin-8-yl]-3,6-dihydro-2H-pyridin-1-yl]butan-1-one]", "Ki": 0.41}
{"compound": "CN1CCC(N(C)C(=O)c2ccc(Nc3nc4c(C5=CCN(C(=O)C6CC6(C)C)CC5)cccn4n3)cc2)CC1", "note": "(centres unmarked) [Example 2-160, 4-[[8-[1-(2,2-dimethylcyclopropanecarbonyl)-3,6-dihydro-2H-pyridin-4-yl]-[1,2,4]triazolo[1,5-a]pyridin-2-yl]amino]-N-methyl-N-(1-methyl-4-piperidyl)benzamide]", "Ki": 11.1}
{"compound": "CN1CCC(N(C)C(=O)c2ccc(Nc3nc4c(C5=CCN(C(=O)C6C(C)(C)C6(C)C)CC5)cccn4n3)cc2)CC1", "note": "[Example 2-161, N-methyl-N-(1-methyl-4-piperidyl)-4-[[8-[1-(2,2,3,3-tetramethylcyclopropanecarbonyl)-3,6-dihydro-2H-pyridin-4-yl]-[1,2,4]triazolo[1,5-a]pyridin-2-yl]amino]benzamide]", "Ki": 8.38}
{"compound": "CN1CCC(N(C)C(=O)c2ccc(Nc3nc4c(C5=CCN(C(=O)N6CCS(=O)(=O)CC6)CC5)cccn4n3)cc2)CC1", "note": "[Example 2-162, 4-[[8-[1-(1,1-dioxo-1,4-thiazinane-4-carbonyl)-3,6-dihydro-2H-pyridin-4-yl]-[1,2,4]triazolo[1,5-a]pyridin-2-yl]amino]-N-methyl-N-(1-methyl-4-piperidyl)benzamide]", "Ki": 37.3}
{"compound": "CN1CCC(N(C)C(=O)c2ccc(Nc3nc4c(C5=CCN(C(=O)CC(F)(F)F)CC5)cccn4n3)cc2)CC1", "note": "[Example 2-163, N-methyl-N-(1-methyl-4-piperidyl)-4-[[8-[1-(3,3,3-trifluoropropanoyl)-3,6-dihydro-2H-pyridin-4-yl]-[1,2,4]triazolo[1,5-a]pyridin-2-yl]amino]benzamide]", "Ki": 1.35}
{"compound": "CN1CCC(N(C)C(=O)c2ccc(Nc3nc4c(C5=CCN(C(=O)C6CC(C)(O)C6)CC5)cccn4n3)cc2)CC1", "note": "(centres unmarked) [Example 2-164, 4-[[8-[1-(3-hydroxy-3-methyl-cyclobutanecarbonyl)-3,6-dihydro-2H-pyridin-4-yl]-[1,2,4]triazolo[1,5-a]pyridin-2-yl]amino]-N-methyl-N-(1-methyl-4-piperidyl)benzamide]", "Ki": 15}
{"compound": "CCOC(=O)N1CC=C(c2cccn3nc(Nc4ccc(C(=O)N5CC(CN)C5)cc4)nc23)CC1", "note": "[Example 2-165, ethyl 4-[2-[4-[3-(aminomethyl)azetidine-1-carbonyl]anilino]-[1,2,4]triazolo[1,5-a]pyridin-8-yl]-3,6-dihydro-2H-pyridine-1-carboxylate]", "Ki": 1.61}
{"compound": "CCOC(=O)N1CC=C(c2cccn3nc(Nc4ccc(C(=O)N5CCCC(c6ccccn6)C5)cc4)nc23)CC1", "note": "(centres unmarked) [Example 2-166, ethyl 4-[2-[4-[3-(2-pyridyl)piperidine-1-carbonyl]anilino]-[1,2,4]triazolo[1,5-a]pyridin-8-yl]-3,6-dihydro-2H-pyridine-1-carboxylate]", "Ki": 3.57}
{"compound": "CCOC(=O)N1CC=C(c2cccn3nc(Nc4ccc(C(=O)NCCN5CC(C)OC(C)C5)cc4)nc23)CC1", "note": "(centres unmarked) [Example 2-167, ethyl 4-[2-[4-[2-(2,6-dimethylmorpholin-4-yl)ethylcarbamoyl]anilino]-[1,2,4]triazolo[1,5-a]pyridin-8-yl]-3,6-dihydro-2H-pyridine-1-carboxylate]", "Ki": 1.98}
{"compound": "CCOC(=O)N1CC=C(c2cccn3nc(Nc4ccc(C(=O)N5CCN(CCO)CC5)cc4)nc23)CC1", "note": "[Example 2-168, ethyl 4-[2-[4-[4-(2-hydroxyethyl)piperazine-1-carbonyl]anilino]-[1,2,4]triazolo[1,5-a]pyridin-8-yl]-3,6-dihydro-2H-pyridine-1-carboxylate]", "Ki": 2.53}
{"compound": "CCOC(=O)N1CC=C(c2cccn3nc(Nc4ccc(C(=O)NCCN(C)C)cc4)nc23)CC1", "note": "[Example 2-169, ethyl 4-[2-[4-[2-(dimethylamino)ethylcarbamoyl]anilino]-[1,2,4]triazolo[1,5-a]pyridin-8-yl]-3,6-dihydro-2H-pyridine-1-carboxylate]", "Ki": 2.74}
{"compound": "CCOC(=O)N1CC=C(c2cccn3nc(Nc4ccc(C(=O)NC(C)c5cccc(C)n5)cc4)nc23)CC1", "note": "(centres unmarked) [Example 2-170, ethyl 4-[2-[4-[1-(6-methyl-2-pyridyl)ethylcarbamoyl]anilino]-[1,2,4]triazolo[1,5-a]pyridin-8-yl]-3,6-dihydro-2H-pyridine-1-carboxylate]", "Ki": 1.39}
{"compound": "CCOC(=O)N1CC=C(c2cccn3nc(Nc4ccc(C(=O)N(Cc5ccccn5)C5CC5)cc4)nc23)CC1", "note": "[Example 2-171, ethyl 4-[2-[4-[cyclopropyl(2-pyridylmethyl)carbamoyl]anilino]-[1,2,4]triazolo[1,5-a]pyridin-8-yl]-3,6-dihydro-2H-pyridine-1-carboxylate]", "Ki": 3.51}
{"compound": "CCOC(=O)N1CC=C(c2cccn3nc(Nc4ccc(C(=O)NCCc5ccncc5)cc4)nc23)CC1", "note": "[Example 2-172, ethyl 4-[2-[4-[2-(4-pyridyl)ethylcarbamoyl]anilino]-[1,2,4]triazolo[1,5-a]pyridin-8-yl]-3,6-dihydro-2H-pyridine-1-carboxylate]", "Ki": 1.53}
{"compound": "CCOC(=O)N1CC=C(c2cccn3nc(Nc4ccc(C(=O)N(C)Cc5ncccc5C)cc4)nc23)CC1", "note": "[Example 2-173, ethyl 4-[2-[4-[methyl-[(3-methyl-2-pyridyl)methyl]carbamoyl]anilino]-[1,2,4]triazolo[1,5-a]pyridin-8-yl]-3,6-dihydro-2H-pyridine-1-carboxylate]", "Ki": 4.96}
{"compound": "CCOC(=O)N1CC=C(c2cccn3nc(Nc4ccc(C(=O)N(CC)Cc5ccncc5)cc4)nc23)CC1", "note": "[Example 2-174, ethyl 4-[2-[4-[ethyl(4-pyridylmethyl)carbamoyl]anilino]-[1,2,4]triazolo[1,5-a]pyridin-8-yl]-3,6-dihydro-2H-pyridine-1-carboxylate]", "Ki": 2.51}
{"compound": "CCOC(=O)N1CC=C(c2cccn3nc(Nc4ccc(C(=O)N5CC6(CCN(C)CC6)C5)cc4)nc23)CC1", "note": "[Example 2-175, ethyl 4-[2-[4-(7-methyl-2,7-diazaspiro[3.5]nonane-2-carbonyl)anilino]-[1,2,4]triazolo[1,5-a]pyridin-8-yl]-3,6-dihydro-2H-pyridine-1-carboxylate]", "Ki": 1.19}
{"compound": "CCOC(=O)N1CC=C(c2cccn3nc(Nc4ccc(C(=O)NCc5cccnc5C)cc4)nc23)CC1", "note": "[Example 2-177, ethyl 4-[2-[4-[(2-methyl-3-pyridyl)methylcarbamoyl]anilino]-[1,2,4]triazolo[1,5-a]pyridin-8-yl]-3,6-dihydro-2H-pyridine-1-carboxylate]", "Ki": 0.87}
{"compound": "CCOC(=O)N1CC=C(c2cccn3nc(Nc4ccc(C(=O)NCc5cncc(C)c5)cc4)nc23)CC1", "note": "[Example 2-178, ethyl 4-[2-[4-[(5-methyl-3-pyridyl)methylcarbamoyl]anilino]-[1,2,4]triazolo[1,5-a]pyridin-8-yl]-3,6-dihydro-2H-pyridine-1-carboxylate]", "Ki": 0.97}
{"compound": "CCOC(=O)N1CC=C(c2cccn3nc(Nc4ccc(C(=O)NCCN5CCC(C)CC5)cc4)nc23)CC1", "note": "[Example 2-179, ethyl 4-[2-[4-[2-(4-methyl-1-piperidyl)ethylcarbamoyl]anilino]-[1,2,4]triazolo[1,5-a]pyridin-8-yl]-3,6-dihydro-2H-pyridine-1-carboxylate]", "Ki": 2.34}
